Data reported in PMC4336329 (PLoS ONE, 2015).
About 14,000 (4.5%) of roughly 310,000 compounds showed an effect of 50% or more. Effects have a minus sign here. The list shows a part of the results.

What follows are compounds tested against human ether-à-go-go-related gene (hERG) potassium channel (human, UniProt Q12809) (assay: primary screen, population patch clamp on CHO cells stably expressing hERG).
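Note: peak tail current of the secondary pulse compared with the same well before compound.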

Sequence of human ether-à-go-go-related gene (hERG) potassium channel (Q12809 whole entry, looked up): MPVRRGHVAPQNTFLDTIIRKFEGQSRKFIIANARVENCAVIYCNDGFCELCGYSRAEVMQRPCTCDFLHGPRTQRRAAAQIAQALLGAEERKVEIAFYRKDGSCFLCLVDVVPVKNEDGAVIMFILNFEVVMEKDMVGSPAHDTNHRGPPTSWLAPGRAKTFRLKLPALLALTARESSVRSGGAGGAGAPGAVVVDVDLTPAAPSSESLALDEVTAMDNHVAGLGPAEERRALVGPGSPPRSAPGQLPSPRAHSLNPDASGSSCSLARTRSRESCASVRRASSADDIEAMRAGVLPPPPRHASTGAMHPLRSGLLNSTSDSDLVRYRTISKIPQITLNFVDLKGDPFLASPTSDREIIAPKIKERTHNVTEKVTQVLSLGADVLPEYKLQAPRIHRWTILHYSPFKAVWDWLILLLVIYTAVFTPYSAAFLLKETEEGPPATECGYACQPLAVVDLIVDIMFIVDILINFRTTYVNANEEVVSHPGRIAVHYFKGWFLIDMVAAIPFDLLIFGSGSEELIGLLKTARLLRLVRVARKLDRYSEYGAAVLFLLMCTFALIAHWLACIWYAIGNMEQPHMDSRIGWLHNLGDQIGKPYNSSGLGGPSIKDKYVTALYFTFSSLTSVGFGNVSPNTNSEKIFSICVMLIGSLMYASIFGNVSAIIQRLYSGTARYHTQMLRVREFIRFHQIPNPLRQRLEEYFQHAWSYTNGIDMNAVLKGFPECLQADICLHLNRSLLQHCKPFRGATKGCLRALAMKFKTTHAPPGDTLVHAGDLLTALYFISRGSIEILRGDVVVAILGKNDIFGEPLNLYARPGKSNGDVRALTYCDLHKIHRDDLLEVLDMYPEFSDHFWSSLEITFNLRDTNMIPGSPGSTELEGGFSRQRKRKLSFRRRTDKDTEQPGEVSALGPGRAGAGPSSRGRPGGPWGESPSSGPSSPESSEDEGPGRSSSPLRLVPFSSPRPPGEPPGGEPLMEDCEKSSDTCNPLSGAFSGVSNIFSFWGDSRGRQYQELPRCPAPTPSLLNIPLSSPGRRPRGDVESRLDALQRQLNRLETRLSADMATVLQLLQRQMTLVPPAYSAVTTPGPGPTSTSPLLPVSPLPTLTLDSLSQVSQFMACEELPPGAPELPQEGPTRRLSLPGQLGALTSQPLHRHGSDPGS

Compared with `Cc1cccc(C(=O)NCC(=O)OCc2nnc(-c3ccccc3)o2)c1`, `CCOc1ccc(C(=O)Nc2ccccc2C(=O)O)cc1` is higher in “hERG current change (%, negative = inhibition) at 10uM” value: -5.96% for the first, 8.2% for the second.

First: Cc1cc(C)n(CCCNC(=O)Cn2nnnc2CN2C[C@@H](C)O[C@@H](C)C2)n1
Second: Cc1cc(C)c(NC(=O)Cn2cc3c(n2)CCCC3)c(C)c1
The “hERG current change (%, negative = inhibition) at 10uM” value of the first is lower: 6.72% for the first, 10.4% for the second.

First: COc1ccccc1NC(=O)NCCCl
Second: CCc1ccccc1N(C(C)=O)c1nc(CCl)cs1
The “hERG current change (%, negative = inhibition) at 10uM” value of the first is higher: 17% for the first, 6.77% for the second.

First: CCCOC(=O)Nc1nnc(CCC)s1
Second: CCCC(=O)c1cc(CP(=O)(OCC)OCC)oc1C
The “hERG current change (%, negative = inhibition) at 10uM” value of the first is lower: -5.41% for the first, 12.8% for the second.

Going from `CS/C(N)=N/N=C/c1ccc([N+](=O)[O-])cc1.I` to `CC(OC(=O)CSc1ccc([N+](=O)[O-])cc1)C(=O)NC1CC1` (stereo not shown), the “hERG current change (%, negative = inhibition) at 10uM” value rises from -25.4% to -14.7%.

Compared with `CCCSc1nnc2n(C)c(=O)c3c4c(sc3n12)CCC4`, `Br.CCn1c2c(c(=N)c3c1CCC3)CCCC2` is higher in “hERG current change (%, negative = inhibition) at 10uM” value: -71.5% for the first, -2.41% for the second.

Going from `Cc1cc(NS(=O)(=O)c2ccc(NC(=O)c3ccco3)cc2)nc(C)n1` to `O=C(Nc1ccc(S(=O)(=O)Nc2cnc3ccccc3n2)cc1)c1ccc(Cl)cc1Cl`, the “hERG current change (%, negative = inhibition) at 10uM” value falls from 3% to 0.829%.

Going from `COC(=O)c1c(NC(=O)C2CC=CCC2C(=O)O)sc(C)c1C` (stereo not shown) to `CC(=O)Nc1sc(C)c(C)c1C(=O)OCC(=O)Nc1cc(S(=O)(=O)N2CCCCC2)ccc1Cl`, the “hERG current change (%, negative = inhibition) at 10uM” value rises from -13.4% to 8.54%.

Compared with `O=C1NC(c2cccs2)Nc2ccccc21` (stereo not shown), `O=C(c1ccco1)N1N=C(c2cccs2)CC1c1ccco1` (stereo not shown) is higher in “hERG current change (%, negative = inhibition) at 10uM” value: -1.84% for the first, 13.8% for the second.

Going from `COc1ccc(CSc2nc(C)[nH]c2[N+](=O)[O-])cc1[N+](=O)[O-]` to `COc1ccc(C(=O)Nc2ccc([N+](=O)[O-])cn2)cc1OC`, the “hERG current change (%, negative = inhibition) at 10uM” value falls from 4.63% to -22.6%.

First: COc1cc(/C=N/NC(=O)CCn2c3ccccc3c3ccccc32)cc(OC)c1OC
Second: COc1ccc(NC(=O)CSc2c3c(nc4cc(Cl)ccc24)CCCC3)cc1OC
The “hERG current change (%, negative = inhibition) at 10uM” value of the first is higher: 6.78% for the first, -25% for the second.

First: CCOCCCNC(=O)c1ccccc1NC(=O)C1=C(C)OCCS1
Second: Cc1ccc(O)c(NC(=S)NC(=O)c2ccccc2Cl)c1
The “hERG current change (%, negative = inhibition) at 10uM” value of the first is higher: 17.3% for the first, 13.3% for the second.

Compared with `O=C(NCCC1=CCCCC1)C1CC(=O)N(C2CCCCC2)C1` (stereo not shown), `Cn1cccc1C(=O)NC1CCCCCC1` is higher in “hERG current change (%, negative = inhibition) at 10uM” value: -4.32% for the first, 4.23% for the second.

Compared with `O=C(COC(=O)Cc1ccc(Cl)cc1Cl)Nc1ccc(OC(F)F)cc1`, `O=C(COc1ccc2ccccc2c1)NNC(=O)Nc1ccccc1F` is lower in “hERG current change (%, negative = inhibition) at 10uM” value: 26.9% for the first, 13.5% for the second.

Compared with `CC(C)(C)Sc1ccc2nc3c(n2c1)CCCC3.Cl`, `CCc1ccc(-c2nc(SCC(=O)N(C)C3CCS(=O)(=O)C3)n[nH]2)cc1` (stereo not shown) is higher in “hERG current change (%, negative = inhibition) at 10uM” value: -25.6% for the first, 2.27% for the second.

Compared with `O=[N+]([O-])c1ccc2nc(-c3ccc(Cl)cc3)n(OCc3ccccc3)c2c1`, `O=c1c2ccccc2oc2nc(-c3cccs3)n(CCc3ccccc3)c(=O)c12` is lower in “hERG current change (%, negative = inhibition) at 10uM” value: 13.2% for the first, 6.84% for the second.

First: COc1cccc(-c2nnc(SCc3nc4ccccc4s3)n2C)c1
Second: Cc1cc(C(=O)CSc2nc3ccccc3n2CCC#N)c(C)n1Cc1cccs1
The “hERG current change (%, negative = inhibition) at 10uM” value of the first is lower: -29% for the first, 2.04% for the second.

Going from `Cc1cc(C)c(S(=O)(=O)N2CCCOC2CNC(=O)C(=O)NCc2cccs2)c(C)c1` (stereo not shown) to `CCC(=O)c1c[nH]c(C(=O)NCc2cccs2)c1`, the “hERG current change (%, negative = inhibition) at 10uM” value rises from -8.31% to 3.35%.

First: COC/C=C/C1=CC2=CC(=O)C(C)(OC(=O)c3cnc4ccccc4n3)C(=O)C2=CN1c1ccccc1 (stereo not shown)
Second: COc1cccc(N2CCN(C(=O)CC(NC(=O)c3ccccc3)c3ccccc3)CC2)c1 (stereo not shown)
The “hERG current change (%, negative = inhibition) at 10uM” value of the first is higher: -9.84% for the first, -65% for the second.

First: O=[N+]([O-])c1ccc(N2CCN(Cc3ccccc3)CC2)s1
Second: Cc1cc(C)c2oc(C(=O)N3CCN(Cc4ccccc4)CC3)cc(=O)c2c1
The “hERG current change (%, negative = inhibition) at 10uM” value of the first is higher: -27.1% for the first, -42.9% for the second.

First: CCC(=O)Nc1cccc(Br)c1
Second: O=C(Nc1ccc2ccccc2c1)c1ccc(Br)o1
The “hERG current change (%, negative = inhibition) at 10uM” value of the first is lower: 12.7% for the first, 19.8% for the second.

First: Cc1ccc(/C(N)=N/OC(=O)CCC2CCCC2)cc1
Second: Cc1ccc(OCC(=O)N2CCN(C(=O)CCC3CCCC3)CC2)cc1
The “hERG current change (%, negative = inhibition) at 10uM” value of the first is higher: -5.25% for the first, -54.3% for the second.

Going from `Brc1csc(/C=N/Nc2nc3ccccc3s2)c1` to `COc1ccccc1N(C)S(=O)(=O)c1ccc(C(=O)Nc2nc(C)cs2)cc1`, the “hERG current change (%, negative = inhibition) at 10uM” value falls from 3.78% to -8.38%.

Going from `COc1ccccc1NC(=O)c1ccc(S(=O)(=O)N2CCOCC2)cc1` to `COc1ccc(N2CCN(C(=O)c3ccc(S(=O)(=O)N4CCOCC4)cc3)CC2)cc1`, the “hERG current change (%, negative = inhibition) at 10uM” value falls from 1.89% to -9.7%.

Going from `NC(=O)[C@@H]1CCCN1C(=O)c1ccc2oc(CCc3ccccc3)nc2c1` to `CCOC(=O)C1CCCN(C(=O)COC(=O)c2cc(=O)c3ccccc3o2)C1` (stereo not shown), the “hERG current change (%, negative = inhibition) at 10uM” value rises from 3.06% to 7.13%.

Going from `O=C(COc1cccc2cccnc12)NNC(=O)Nc1ccccc1` to `COC(=O)c1ccccc1NC(=S)NC(NC(=O)COc1ccccc1)C(Cl)(Cl)Cl` (stereo not shown), the “hERG current change (%, negative = inhibition) at 10uM” value rises from 1.8% to 7.66%.

Going from `O=C(/C=C/c1ccccc1)NC(=S)N1C[C@H]2C[C@H](C1)c1cccc(=O)n1C2` to `CN1CCN(c2ccc(Cl)cc2NC(=O)/C=C/c2ccc(F)cc2)CC1`, the “hERG current change (%, negative = inhibition) at 10uM” value falls from -15% to -75.6%.

Going from `Cc1cc[n+]2n1CC(O)C2.[Cl-]` (stereo not shown) to `Cc1ccc(NC(=O)N2CCC(NC(=O)c3ccco3)CC2)cc1`, the “hERG current change (%, negative = inhibition) at 10uM” value falls from 9.59% to 4.55%.

Compared with `Cc1c(C(=O)N2CCCC2)c(S(=O)(=O)NCCc2ccccc2)c(C)n1C`, `CCN(CC)S(=O)(=O)c1ccc2c(c1)c(=O)c(C(=O)N1CCN(c3ccccn3)CC1)cn2C` is lower in “hERG current change (%, negative = inhibition) at 10uM” value: 10.1% for the first, -15.6% for the second.

Compared with `CCC(=O)N1CCc2cc(S(=O)(=O)CCC(=O)O)ccc21`, `Cc1cc(N)n(-c2ccc(S(N)(=O)=O)cc2[N+](=O)[O-])n1.O=C(O)C(F)(F)F` is lower in “hERG current change (%, negative = inhibition) at 10uM” value: 24.6% for the first, 23.2% for the second.

First: Cc1ccc(NC(=O)Nc2nnc(-c3ccccc3F)s2)cc1
Second: Cc1ccc(C(=O)O/N=C(\N)c2cccc([N+](=O)[O-])c2)cc1
The “hERG current change (%, negative = inhibition) at 10uM” value of the first is higher: 10.8% for the first, 1.58% for the second.

Going from `Cc1cccc(CCNC(=O)c2cc(=O)[nH]c3ccc(Br)cc23)c1` to `CC(Sc1nc(N)cc(=O)[nH]1)C(=O)NNC(=O)c1cccc(Cl)c1` (stereo not shown), the “hERG current change (%, negative = inhibition) at 10uM” value rises from -0.339% to 0.647%.

Going from `CCN(CC)C(=O)COc1ccc2c(c1)C(=O)CC(C)(C)O2` to `COc1ccc(CNC(=O)COc2cc3c(c4oc(=O)cc(C)c24)CCC(C)(C)O3)cc1OC`, the “hERG current change (%, negative = inhibition) at 10uM” value falls from 27.7% to -31.1%.

First: Cc1nc(Nc2ccccc2)c2oc3ccc(Cl)cc3c2n1
Second: CC(C)c1ccc(Nc2c([N+](=O)[O-])c(=O)n(C)c3ccccc23)cc1
The “hERG current change (%, negative = inhibition) at 10uM” value of the first is higher: 7.31% for the first, -21.8% for the second.

First: COc1ccc2c(C(=O)c3ccc(Cl)cc3)n(CCCC(N)=O)[n+]([O-])c2c1
Second: COc1ccc(COC(=O)C2CC(=O)N(Cc3ccc(C)cc3)C2)cc1 (stereo not shown)
The “hERG current change (%, negative = inhibition) at 10uM” value of the first is higher: -55.5% for the first, -58.3% for the second.

First: COc1cccc(C(C(=O)NCC2CCCO2)N(C(=O)Cn2nnc3ccccc32)c2ccc(NC(C)=O)cc2)c1OC (stereo not shown)
Second: COc1ccc2oc(C(=O)OCC(=O)NCC3CCCO3)c(C)c2c1 (stereo not shown)
The “hERG current change (%, negative = inhibition) at 10uM” value of the first is higher: 6.49% for the first, 2.35% for the second.

First: O=C(O)/C(=C\c1cccc(O)c1)c1ccc(S(=O)(=O)N2CCCC2)s1
Second: Cc1ccc(S(=O)(=O)N(CC(=O)N2CCOCC2)c2ccc(C(C)C)cc2)cc1
The “hERG current change (%, negative = inhibition) at 10uM” value of the first is higher: -9.38% for the first, -34.5% for the second.

Going from `O=C(c1ccco1)N1CCN(c2ccccc2F)CC1` to `CC(C)Cc1nc(N2CCN(C(=O)c3ccco3)CC2)c(C#N)c2c1CCC2`, the “hERG current change (%, negative = inhibition) at 10uM” value falls from -2.71% to -33.2%.

First: COc1cccc(CN2CCCC(N3CCc4ccccc4C3)C2)c1O (stereo not shown)
Second: O=C(NC1CC1)C1CCN(C2CCN(Cc3ccccc3C(F)(F)F)CC2)CC1
The “hERG current change (%, negative = inhibition) at 10uM” value of the first is higher: -17.7% for the first, -53.1% for the second.

First: O=c1cnc(-c2ccc(Cl)cc2)cn1O
Second: CCOc1cc(CNCc2ccccn2)ccc1OCC(=O)NC(C)(C)C.Cl
The “hERG current change (%, negative = inhibition) at 10uM” value of the first is higher: 23.2% for the first, -1.89% for the second.

Going from `O=C(Nc1ccc2oc(-c3ccncc3)nc2c1)c1ccc([N+](=O)[O-])o1` to `CCn1ncc(NC(=S)Nc2ccc3c(c2)OCO3)c1C(N)=O`, the “hERG current change (%, negative = inhibition) at 10uM” value rises from -11.9% to 37.9%.

Compared with `CC1CCCC(NC(=O)COC(=O)Cc2ccsc2)C1C` (stereo not shown), `O=C(CSc1nnc(NC(=O)c2ccccc2)s1)NC1CCCC1` is higher in “hERG current change (%, negative = inhibition) at 10uM” value: -7.65% for the first, 8.09% for the second.

Going from `COC(=O)c1ccc(OCC(O)CN2CCN(CC(O)COc3ccc(C(=O)OC)cc3)CC2)cc1` (stereo not shown) to `COc1ccc(/C(O)=C2\C(=O)C(=O)N(c3cc(C)on3)C2c2cccc(OC)c2OC)cc1C` (stereo not shown), the “hERG current change (%, negative = inhibition) at 10uM” value rises from -72.9% to -4.72%.

First: CCc1nc(C(N)=O)c2[nH]c(=O)n(-c3ccccc3F)c2n1
Second: CCCCN(C(=O)c1[nH]c(C)c(C(C)=O)c1C)c1c(N)n(CCCC)c(=O)[nH]c1=O
The “hERG current change (%, negative = inhibition) at 10uM” value of the first is higher: 11.6% for the first, -7.62% for the second.
